Experimental data as given in the supplement of paper PMC3334620.
The full ranking holds about 33,000 sequences; the median of “E-score (-0.5 to 0.5)” is about -0.043, and the highest 2% start at about 0.37. Some of the results follow.

Target: T1, Upc2 (UniProt Q12151)
T1 sequence: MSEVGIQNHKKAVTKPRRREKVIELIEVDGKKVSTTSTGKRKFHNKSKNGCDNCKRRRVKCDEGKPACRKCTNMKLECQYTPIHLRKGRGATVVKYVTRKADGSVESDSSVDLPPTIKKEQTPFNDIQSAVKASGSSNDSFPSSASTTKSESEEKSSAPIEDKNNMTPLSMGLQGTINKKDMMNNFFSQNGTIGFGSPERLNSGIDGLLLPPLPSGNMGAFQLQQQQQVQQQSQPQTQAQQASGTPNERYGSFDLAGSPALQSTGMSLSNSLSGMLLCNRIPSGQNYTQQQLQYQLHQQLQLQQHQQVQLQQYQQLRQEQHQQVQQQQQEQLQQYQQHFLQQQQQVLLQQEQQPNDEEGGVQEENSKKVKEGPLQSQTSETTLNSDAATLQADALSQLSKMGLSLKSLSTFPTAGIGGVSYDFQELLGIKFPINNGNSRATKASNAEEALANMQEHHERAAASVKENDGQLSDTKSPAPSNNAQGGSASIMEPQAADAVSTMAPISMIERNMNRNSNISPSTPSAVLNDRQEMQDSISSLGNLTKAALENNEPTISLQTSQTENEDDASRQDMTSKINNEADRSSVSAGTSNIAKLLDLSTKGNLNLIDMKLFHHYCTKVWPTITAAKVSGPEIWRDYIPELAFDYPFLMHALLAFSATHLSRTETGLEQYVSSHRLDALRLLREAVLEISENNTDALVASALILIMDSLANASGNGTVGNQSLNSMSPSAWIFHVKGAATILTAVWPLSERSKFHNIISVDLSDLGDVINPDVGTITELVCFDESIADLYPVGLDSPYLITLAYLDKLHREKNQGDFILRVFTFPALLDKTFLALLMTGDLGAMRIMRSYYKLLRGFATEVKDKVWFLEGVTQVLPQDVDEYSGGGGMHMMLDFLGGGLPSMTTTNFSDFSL
Assay: PBM E-score (8-mer binding enrichment) (E-score (-0.5 to 0.5)); higher = stronger / more preferred TF binding; most listed sequences are background and not binding sites
Details: protein concentration: 200 nM; construct: GST-full length
Summary of the method: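 The E-score, a modified Wilcoxon-Mann-Whitney statistic, was computed by the Universal PBM Analysis Suite for every ungapped eight-base word pooled with its reverse complement. Scans behind it were normalised with masliner after bound GST-tagged yeast transcription factors were detected with fluorescent anti-GST. The proteins, at about 100-200 nM, had been applied to universal all-10-mer Agilent arrays made double-stranded by primer extension.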

Row | Sequence | PBM E-score
1 | AACTTCGG | 0.0166
2 | CGTTCCAA | 0.329
3 | TAAGAAAA | 0.109
4 | GTTGAACA | -0.0299
5 | GGTCCCCA | -0.24
6 | AGCCCTCA | -0.0686
7 | GCCCGTAC | 0.366
8 | CCACAAAC | 0.185
9 | CTCAAAAA | -0.123
10 | AAACTAGG | -0.0517
11 | ACGCTCAT | -0.021
12 | CGCTACGC | 0.136
13 | AAAGGGAC | -0.183
14 | ATTTCGGG | -0.185
15 | GGTCTGCA | -0.156
16 | CCTAGTGA | -0.174
17 | ATTCAGAC | -0.00754
18 | CTAAAGGC | 0.00207
19 | CGTTTTTA | 0.251
20 | GGGCATAC | 0.0895
21 | CTCTGTCA | -0.0724
22 | ACTCGACA | 0.0576

Row | Sequence | PBM E-score
23 | CTTTATAA | -0.025
24 | ACTGGTAT | 0.102
25 | ACCGGGTC | -0.0132
26 | CTACGATC | 0.288
27 | ACATTTAC | 0.0638
28 | CGGCGTAG | 0.0555
29 | ACAATTGC | -0.0645
30 | GGGCGCCA | -0.19
31 | CCACCCTA | 0.0273
32 | CCATTTCG | -0.00075
33 | GACTCGGA | -0.00437
34 | GGTCTGAC | -0.214
35 | CTGTCCAA | -0.101
36 | CTTACTTC | 0.0271
37 | CGAAAGTA | 0.0261
38 | CACCTGGA | -0.176
39 | TCTTGTAA | 0.108
40 | CTCGGTTA | 0.381
41 | ACGGAAGG | -0.0344
42 | CCGATTAG | 0.149
43 | AACATAAC | 0.126
44 | ATCCTGGG | -0.0504

Row | Sequence | PBM E-score
45 | CCATTTAG | 0.0361
46 | AGATGCTG | -0.196
47 | GCGTGCCC | -0.0635
48 | GAAAGGTA | 0.00105
49 | CTATCAAA | -0.0229
50 | CTCCGGGC | -0.0201
51 | CCCCGAGC | -0.255
52 | TCAAGCCA | -0.083
53 | GCAGCTGC | -0.0641
54 | TCGGCGCA | -0.179
55 | AAAAACCC | -0.12
56 | CTAGTGTA | 0.0285
57 | GATGCTCC | -0.182
58 | CCTACGAG | 0.341
59 | CCTAGAGA | -0.206
60 | CAGAGCAA | 0.0622
61 | CCGGAACC | -0.113
62 | CATGACTC | -0.154
63 | CTGGTGCA | -0.267
64 | GATTATAC | 0.243
65 | AAGCCAGG | -0.286
66 | ATCCCCGC | -0.0454

Row | Sequence | PBM E-score
67 | CTACTCGC | 0.0818
68 | TGCTGCAA | -0.0481
69 | CCGACCAG | -0.171
70 | ATAGGTGA | 0.00835
71 | AAATCTAT | 0.142
72 | GCCCATAC | 0.0551
73 | TCCCCCAA | -0.324
74 | TGGCGGAA | -0.216
75 | ACCGGAAA | -0.00571
76 | GGATTTAA | 0.00251
77 | CTGTGATC | -0.235
78 | ACCGCGCC | -0.0336
79 | AGTGAACC | 0.0989
80 | CACGAAAG | -0.0189
81 | GTCTTAAA | 0.125
82 | CATACGTC | 0.215
83 | GACTGTCA | -0.185
84 | CAAGGGAA | -0.137
85 | CTTTAATC | -0.0244
86 | CAGAAGTC | -0.174
